The list shows a part of the results. At the low end of the ranking the order means little. Measured with an extract: partners may take part in the binding.

The target in this test is T1, HNF4alpha2 (COS-7 nuclear extract) (UniProt P41235).
T1 sequence: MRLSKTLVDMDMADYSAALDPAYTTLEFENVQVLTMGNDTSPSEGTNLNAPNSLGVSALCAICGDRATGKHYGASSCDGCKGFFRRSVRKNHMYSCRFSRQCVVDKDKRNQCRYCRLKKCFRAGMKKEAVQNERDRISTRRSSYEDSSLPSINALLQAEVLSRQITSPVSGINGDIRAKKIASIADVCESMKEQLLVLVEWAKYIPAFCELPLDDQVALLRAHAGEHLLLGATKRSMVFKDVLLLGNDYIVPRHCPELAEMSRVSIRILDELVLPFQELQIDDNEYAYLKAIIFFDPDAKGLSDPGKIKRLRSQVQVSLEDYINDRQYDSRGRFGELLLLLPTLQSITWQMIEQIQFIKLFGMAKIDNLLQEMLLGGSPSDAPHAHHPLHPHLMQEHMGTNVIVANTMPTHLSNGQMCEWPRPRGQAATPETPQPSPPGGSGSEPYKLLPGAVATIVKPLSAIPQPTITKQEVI
The test can be described thus: protein-binding microarray. The note with it: COS-7 nuclear extract on double-stranded Agilent 4x180k PBM; binding buffer, salt, pH and temperature not given; high values mean tight binding; double strand, one strand shown; sequences stand for … in …GCCTAGGGAGATTAGAGTATCGGTCGA
Regarding GCAAGAGTCCAAATTCCTAGCCCTCTTTCA, the binding signal (log2 normalized intensity) is -0.00148.
For the sequence ATGATGAAATTTCCTCTTACCACATCTCAA, the binding signal (log2 normalized intensity) is -0.2.
As for TTCGGACATTCCAGGGAACAAGGGGTGGAT, the figure is -0.835.
In the case of TCTGACCAACGCCTCCCTCCTTCCGCGGAC it was 1.13; in that of TTACTTAATCCCTTGGAATGTCCTTTCCTC, 1.55; in that of TGGACTCTGTTTTAGTTGAGTGTGACAAGA, 1.53.
In the case of GCAAATAAAGCTAACCAGCTCTATCAGTCT it was -1.16; in that of TCTGCGTCTTACTAAATGCAGCCTTGGGCA, -1.15.
Turning to GGAGGTGACCTTTGGTTGTCCTTACTGCTA, the binding signal (log2 normalized intensity) was found to be 3.3.
In the case of TATGCTCACTGACCTCTGCCCTACTGTATA it was 3.46; in that of AGTCTGACTACTTCTCACCACCTCTGCTGC, -1.11.
In the case of TTCCTATCTCTACTTGCCGAAACATTTTCT it was 0.0166; in that of CCACCTAATTTAGATATCGCTCCAAGAGCC, -1.21.
With ACTGAATGTGACCTTTTGGACCACAGAGTG, the binding signal (log2 normalized intensity) was found to be 5.39.
Take TTGACAGGCAACAATTTGAGGGGTCAAGAA: the binding signal (log2 normalized intensity) was found to be 2.43.
As for CTGACCTCTTTTGGATTTTTCCATATCTGT, the figure is 1.74.
As for ACATTTATTGGACTAGGCACAGGAACCTGT, the figure is -0.432; as for CAGCCACCAAAGCAGCTAGCAAATACAAGG, -1.14.
Consider GCCACAATTAATGTACCCCCGGAAACACGT, for which the binding signal (log2 normalized intensity) amounted to 3.86.
In the case of GGTAAACAGCCTCTAAGCACGGCCAGGATT it was -1.24; in that of ATCAAGGAGGACTTTGGAATGGCAGTGCTT, 2.96.
As for GGGAATTACTCTTCTATTACATGGAAGCCT, the figure is -0.78.
Regarding ATCCTAGGAGAGCCAAATCTTAAGGGTTAA, the binding signal (log2 normalized intensity) came out at 0.079.
In the case of TCGAATGGTATGCTAGAGTACTTGGACTTT it was 6.9; in that of GGCCGTGGGTGGAAGGAAAAGAGGAAAACC, -1.12.
In the case of AATACACAGCTAGCAGGTGACAAATCCAGG it was -1.14.
In the case of TCTATCTCATTACTAATCCTCTTCTGTCCT it was 1.19; in that of TTCTGAGGAGAAGAATGAAAGCCAAGGCAG, -1.17.
As to GTGCCCTTTGAGATTTGCATTCATGATCTT, the binding signal (log2 normalized intensity) is 1.93.
In the case of GTGATCAGGTGTGGGCATTAGCAGGGAGGA it was -1.22.
As for GGGGATGAGATCTGAAGATAAATGCCTTAG, the figure is -1.03; as for AGTGCAAGGCCCAGCTAGAAGCAGTGGGAC, -1.07; as for GAACTGGTGACCGGACACAAAAGCTGCTGC, -1.22.
As for TTACTTCATAGGATTAAGTGCATACTCAAA, the figure is -0.0395.
For the sequence ATGGGAATTAGGGAGTAGGGACAGCTAGTC, the binding signal (log2 normalized intensity) is -1.19.
In the case of TGTGGTTCCCAAGAAGAGCCCAGACAAGCA it was -1.02.
For the sequence GTGTGTAGACTCCAGGCTTGTCCTTTTGAC, the binding signal (log2 normalized intensity) is 2.27.
With CCAGACACTGCTCTAGGCATTGGAGATATG, the binding signal (log2 normalized intensity) is -0.853.
As for GCAGATGTGTCTTTATAACAGACTGTAGGC, the figure is 0.596.
In the case of GCCCTCCAAACTGAGAGATTTTTTCTTCCA it was -1.28; in that of TGGCTTATGCAAATGTTATGGCTGGTTTGG, 1.81.
As for CTGCTGAGAGAGCAGGTTGAGTATCTACCA, the figure is -1.12; as for ATGACTGCAGAGCTTGCTCTCACCAGCTTC, -1.2; as for ATCAGGCTCTGGAATCTCTGGATTTCAGGT, 0.194.
On to TGGTTGACATACTTCTGAGTTTTATCAGCT, for which the binding signal (log2 normalized intensity) is 0.132.
As for CGTCGATTAGCTGGGGACCCGTCGCTGCTG, the figure is -1.28; as for TTCTCAGAAACGCCTGGCGCTTATCTGAGC, -1.1; as for CTCCCAAGGTATCCTCCTAGAGTCCAAGGT, 2.68.
In the case of ATCTCCAGCTTATCTGTCCATCCCTCACTC, the binding signal (log2 normalized intensity) was -0.559.
Consider GCTAAAAGTTGAATTCTTGACTTTGGACTT, for which the binding signal (log2 normalized intensity) was 5.79.
Regarding AGTTTATCTAAGATTCCCCCTACCCTCAAT, the binding signal (log2 normalized intensity) came out at 4.67.
In the case of GAAGGGCAGGGCCTGGGAGATAACCCATCT it was -1.11.
As for AAGCAACTCCTCTGTACAGCTCTTGTGCTC, the figure is -1.07; as for TCATCAGCACATTGGTGAGAATGGAGGTAG, 0.75.
As for TAATTGGAAATAATGCGACTTGCCTTGTGT, the binding signal (log2 normalized intensity) worked out at 0.764.
As for CCAGGCTGATTTAGCTATTTGACCTTCGGC, the figure is 4.92; as for AAAGTATCTAAGGGCCTAGAAGAGTTCCTG, -1.11; as for AAACTGTTCAAGACTTTCAGCCAACGCTGA, -1.2.
Take TCACATCTATCTCCCTACCCTCACCCCTGC: the binding signal (log2 normalized intensity) stood at 3.71.
As for TTATCTTGGTGCCTGCAGAGCCTCCCCATT, the figure is 2.85; as for GGGAATTTCCAAAGAGCAGCTAGCTCCAGT, -1.17.
For the sequence GGTTTATGGCTTATGCATGTTTATGTGAAT, the binding signal (log2 normalized intensity) is 1.88.
In the case of AAAATATTGCCAATATCTGCCATCTACTAA it was -1.15; in that of GAGGTTCTTGTAAGGTTCTTGTATCTGATC, 1.48.
As for TAACCGAAAGTCTGACCCTTGACCAAGCAG, the figure is 4.29; as for TGTAGAGGAGATGTGGTGGACTTTAACGAC, 2.53; as for GCAAGGGTCAGAGTAAAGCTCCAGTCTCCT, -1.32.
As for CAAATTTTGATAATTACAGAGCAAGTAGAG, the figure is 0.868; as for GTAGGCACAAAGGTGCAAAGTACATATTTA, 4.31; as for TTGTGTTATGTACTTAGTGTTTTATGTGTA, 2.54.
Take ATTCAGAGGTCAGGGGAGAGAGGCAAGATC: the binding signal (log2 normalized intensity) is -1.01.
As for TTTGTTAAGTACCCACTATAGATTGTGAGA, the figure is 0.431.
As for ATTTCCTGCAGGTGGTGACCCCAGACCTTA, the binding signal (log2 normalized intensity) came out at 3.59.
In the case of GTACAGAGAGCATTCTGCTGCTCTTTAATC it was -0.146.
In the case of AGAGACCTGGCGGATAGATAGAATCTTAAC it was -1.12; in that of TCTGGATGCCTCACCTGGCAAGGCAGCCTC, -1.15.
In the case of GCGGAAGGACACAGATTCAGAGTCACATTT it was -1.15; in that of AAATTTATCTATTGGGTACAATGTTCACTA, 2.68.
With TTCGGCACCTTCTACACAGCACCCCTTGCA, the binding signal (log2 normalized intensity) was 2.41.
In the case of ACAGGCTGAGGATCTAATGCACCCAGAACC, the binding signal (log2 normalized intensity) was -1.14.
For the sequence CTGTTCTAAGCACCTCTGCTTATCTCAACT, the binding signal (log2 normalized intensity) is -0.963.
For TTGGATAACCTTCTGCTGGATGCCCAGGGA, the binding signal (log2 normalized intensity) is 1.15.
CTCCTCACTATTGTGCTAATATAAGTCATT: the binding signal (log2 normalized intensity) came out at 1.13.
As for CATATCAGCTTTCTTTTCCAACCATTGACA, the figure is 2.24; as for ATAAGGGTATGGATTCTGGGACCCACCCAC, 0.861.
As for GCGGTTCATCCAACAGGTGAGGTGGGTGTT, the figure is 1.04; as for GCTATCAGTACTGAAACATGCCTATGACCG, 1.31; as for GGGAGGGAACAGTCCAGAGTCTGACAGAAC, -1.17.
As for TGATCGCCCTCCCCCAGAGAGAACAGTCCT, the figure is 4.9; as for ACATTTTAACACAGGACAAATCAAGTGAAA, -1.11; as for GAAAGTGAGCAGGCAGTGTCACAGAAATCA, -1.06.
As to GTGGCCGGACAGGTTGGGTCTGAAGCCACA, the binding signal (log2 normalized intensity) was -1.09.
For the sequence AACCAAGCCTGCAGCACCTTGATGCTGGAC, the binding signal (log2 normalized intensity) is -0.00641.

(Values after publication PMC10726135.)
